In the supplement of paper PMC12217912:
Some of the results follow. The full chains were built here from the parent and the listed change. Values near 0.05 are background.

B1: TEV protease; the commonest letter at each place (parent)
chain: MGESLFKGPRDYNPISSSICHLTNESDGHTTSLYGIGFGPFIITNKHLFRRNNGTLVVQSLHGVFKVKDTTTLQQHLVDGRDMIIIRMPKDFPPFPQKLKFREPQREERICLVTTNFQTKSMSSMVSDTSCTFPSGDGIFWKHWIQTKDGQCGSPLVSTRDGFIVGIHSASNFTNTNNYFTSVPKNFMELLTNQEAQQWVSGWRLNADSVLWGGHKVFMVKPEEPFQPVKEATQL

Variants of: B1
Experiment: raw area under fraction-flipped curve 0-4 h after induction (AUC4h, not background-subtracted), DNA-recorder readout of cleavage of the substrate (dimensionless); higher = more cleavage of the substrate by the protease variant
Settings: temperature: 34 °C; time window: 0-4 h after rhamnose induction
Procedure: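 In vivo DNA recorder in E. coli TOP10(DE3) ΔrhaA at 34 °C. Each TEVp single-site mutant (parent TEVp 0) is paired with a single-site variant of the 7-mer TEVs (canonical ENLYFQ|S). The substrate sits between flexible linkers in a Bxb1-sfGFP-TEVs-SsrA fusion, so cleavage stabilises Bxb1 and speeds flipping of a recombination array, read by NGS. The value is the raw area under the fraction-flipped curve over 0-4 h after rhamnose induction (AUC4h), with ≥20 reads per time point. It is not background-subtracted; inactive controls average about 0.047.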
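Note: Bxb1 expression induced with 0.2% (w/v) L-rhamnose at OD600 near 0.5, cultures sampled hourly, flipped fraction per protease–substrate barcode pair counted by paired-end Illumina sequencing.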

| Variant | area with substrate ENLYAQS | area with substrate ENLYCQS | area with substrate ENLYDQS | area with substrate ENLYEQS | area with substrate ENLYGQS | area with substrate ENLYHQS | area with substrate ENLYIQS | area with substrate ENLYKQS | area with substrate ENLYLQS | area with substrate ENLYMQS | area with substrate ENLYNQS | area with substrate ENLYPQS | area with substrate ENLYQQS | area with substrate ENLYRQS | area with substrate ENLYSQS | area with substrate ENLYTQS | area with substrate ENLYVQS | area with substrate ENLYWQS | area with substrate ENLYYQS |
| --- | --- | --- | --- | --- | --- | --- | --- | --- | --- | --- | --- | --- | --- | --- | --- | --- | --- | --- | --- |
| unchanged | 0.0739 | 0.087 | 0.0624 | 0.0687 | 0.0644 | 0.0692 | 0.123 | 0.0605 | 0.0871 | 0.085 | 0.0681 | 0.0725 | 0.064 | 0.0626 | 0.075 | 0.0793 | 0.116 | 0.0806 | 0.0648 |
| L33N | 0.0742 | 0.0704 | 0.0378 | 0.0659 | 0.0645 | 0.0774 | 0.0788 | 0.0638 |  | 0.0745 | 0.0579 | 0.0771 | 0.0545 | 0.0611 | 0.0755 |  |  | 0.0792 |  |
| T192V | 0.0852 |  |  | 0.0809 | 0.0685 |  | 0.118 | 0.0584 |  | 0.0952 |  | 0.0805 |  |  | 0.0869 | 0.0955 |  | 0.0706 | 0.0664 |
| P96S | 0.0498 |  | 0.0651 | 0.0792 | 0.0576 | 0.0639 |  | 0.0379 | 0.0874 | 0.0627 |  | 0.0819 | 0.0611 | 0.0712 |  |  | 0.125 |  | 0.0506 |
| P96V | 0.0537 | 0.0857 | 0.0651 | 0.0751 | 0.0564 | 0.0695 | 0.118 | 0.0733 | 0.0742 | 0.0737 | 0.0645 | 0.0788 |  |  | 0.07 |  | 0.114 | 0.079 |  |
| G150W | 0.06 | 0.0598 | 0.0602 | 0.0576 | 0.0666 | 0.0608 | 0.0385 | 0.0586 |  | 0.0525 | 0.0615 | 0.0519 | 0.0691 | 0.0667 | 0.0676 | 0.0623 | 0.0583 | 0.0588 | 0.0499 |
| V200P |  | 0.0674 |  |  |  | 0.0465 |  | 0.0364 | 0.0496 |  | 0.061 | 0.0749 | 0.0621 |  | 0.0827 | 0.053 |  | 0.0656 | 0.0604 |
| P134H | 0.0692 | 0.0728 | 0.0683 | 0.0655 | 0.0613 | 0.0445 | 0.0876 | 0.065 |  | 0.0706 | 0.0634 | 0.074 | 0.0682 | 0.0646 | 0.0662 | 0.0548 | 0.0839 | 0.0634 | 0.0535 |
| E224V | 0.0843 | 0.0831 | 0.0744 | 0.0881 | 0.0545 | 0.068 | 0.092 | 0.061 | 0.0953 | 0.0989 | 0.0752 | 0.0611 | 0.0591 | 0.067 | 0.0894 | 0.0597 | 0.0886 | 0.0917 | 0.101 |
| E224W | 0.0768 |  | 0.0267 | 0.0613 | 0.0628 | 0.0671 | 0.113 | 0.0588 | 0.0748 | 0.0836 | 0.0689 | 0.0753 | 0.0638 | 0.0634 | 0.0672 | 0.0793 |  | 0.0376 | 0.0633 |
| E224N | 0.0777 | 0.092 |  | 0.0638 | 0.0722 | 0.0707 | 0.071 | 0.0632 |  | 0.0918 | 0.06 |  | 0.0652 | 0.0583 | 0.06 | 0.0712 |  | 0.062 | 0.0756 |
| E224A | 0.0714 | 0.0771 | 0.0524 | 0.0688 | 0.0878 | 0.0666 | 0.122 | 0.076 |  | 0.0791 | 0.061 | 0.0761 | 0.0592 | 0.0705 | 0.0703 |  | 0.0912 | 0.0725 | 0.0591 |
| S16T | 0.075 | 0.0824 | 0.0645 | 0.0671 | 0.0616 | 0.0685 | 0.134 | 0.0538 |  | 0.0907 | 0.0656 | 0.0615 | 0.0614 |  | 0.0544 | 0.0927 | 0.0913 | 0.0703 | 0.0608 |
| S16N | 0.0715 |  | 0.0559 | 0.065 | 0.0642 | 0.0693 | 0.124 | 0.0575 |  | 0.0809 | 0.0695 | 0.0759 | 0.0648 | 0.0608 | 0.0706 |  |  | 0.0755 |  |
| N177E | 0.0804 | 0.0863 | 0.0609 | 0.0571 | 0.0717 | 0.0651 | 0.0801 | 0.0659 | 0.0763 | 0.0754 | 0.0578 | 0.0699 | 0.0719 | 0.0634 | 0.07 |  | 0.105 | 0.0656 | 0.0487 |
| A232C | 0.0663 | 0.0765 |  |  | 0.0441 | 0.0425 | 0.103 | 0.0633 |  |  |  | 0.0832 |  | 0.0555 | 0.0643 |  | 0.115 |  | 0.0587 |
| T72V | 0.0677 |  | 0.0447 | 0.069 |  | 0.0677 |  | 0.0446 | 0.109 | 0.0735 | 0.0733 | 0.0809 | 0.0655 | 0.0407 | 0.0738 | 0.0689 | 0.128 | 0.105 |  |
| R160Y | 0.0714 |  | 0.0617 | 0.0733 | 0.0655 | 0.0702 | 0.148 | 0.0648 | 0.0923 | 0.0727 |  | 0.0726 | 0.0566 | 0.0488 |  | 0.0707 | 0.151 | 0.0774 | 0.0556 |
| P40D | 0.0767 | 0.0879 | 0.0549 | 0.0548 | 0.0582 | 0.0796 | 0.117 | 0.0518 |  |  | 0.0698 |  |  | 0.0563 | 0.0853 | 0.0815 | 0.133 | 0.0887 |  |
| L48V | 0.07 | 0.0715 | 0.0613 | 0.0605 | 0.0553 | 0.0646 | 0.0748 | 0.0711 | 0.067 | 0.071 | 0.0629 | 0.0599 |  | 0.0717 | 0.0514 | 0.0583 | 0.0761 | 0.0768 |  |
| L48R | 0.0555 | 0.0544 | 0.0694 | 0.0715 | 0.056 | 0.0573 | 0.0596 | 0.0637 | 0.0573 | 0.0753 | 0.0565 | 0.059 | 0.0599 | 0.0595 |  | 0.064 | 0.0608 | 0.0696 | 0.0651 |
| T30S | 0.0611 |  | 0.0653 | 0.0666 | 0.0771 | 0.0662 | 0.128 | 0.0616 |  | 0.103 | 0.0715 | 0.0784 | 0.0606 |  | 0.0917 |  | 0.128 | 0.0839 | 0.0395 |
| G8F | 0.0928 |  | 0.0727 | 0.0658 | 0.0657 | 0.0469 |  | 0.0502 |  | 0.0993 | 0.075 | 0.0765 | 0.0708 | 0.067 | 0.0551 |  | 0.0656 |  | 0.0608 |
